Test results reported in PubChem BioAssay AID938 (National Center for Advancing Translational Sciences (NCATS), 2007).
“And” between values parts separate entries of the source, which are not always exact repeats. Equal entries are not always repeated. Screen size: about 73,000 compounds; about 1,800 (2.5%) were called active. This list was built around the results that the source calls inconclusive (neither active nor inactive); the mix of calls is not that of the screen. The call rests on the fitted dose curve; in most records, active means well fitted activation curve with a large enough effect; inconclusive means small, poorly fitted or top-dose-only effect; inactive means no such curve, though single readings can be large or run the other way. No potency is given beside an inconclusive call; the fits are too rough.

assay: qHTS Assay for Agonists of the Thyroid Stimulating Hormone Receptor: Activators of Intracellular cAMP Concentrations in Parental HEK 293; conditions: parental HEK293 CNG cAMP sensor, membrane potential fluorescence; activation: at 57.1 µM (top of the series) unless noted; further: nearly all actives have a fitted effect of over 55% in size; on activation: % of control where 0% means no effect
Procedure, shortened: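 Parental HEK 293 cells stably expressing a modified CNG channel (no TSHR) report cAMP rise as membrane depolarization. Membrane potential dye with 100 uM RO 20-1724 was loaded for 60 min at room temperature, then compound added for 30 min; fluorescence read at 590 nm.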
Potency means the concentration at half of the fitted maximal effect; tags describe the fitted curve by direction and shape.

SMILES	Potency	activation
COc1ccc(-c2cc(=O)c3ccccc3s2)cc1	inconclusive [activator, single point]	
COc1ccccc1-c1nnc(SCC(=O)Nc2nc(-c3ccccc3)cs2)n1C	inconclusive [activator, partial curve]	
COc1ccc(NC(=O)c2cccc(-n3cnnn3)c2)cc1	inactive	
Cc1ccc(C(C(=O)NC2CCCCC2)N(CCC(C)C)C(=O)CNC(=O)c2ccco2)o1 (stereo not given)	inconclusive [activator, full curve]	
CCCOC(=O)c1[nH]c2c(c1C)C(=O)CC(c1cc(OC)c(OC)c(OC)c1)C2 (stereo not given)	active: 15.8 µM	
CSCCC(NC(=O)c1ccc(=O)n(C)n1)c1nc2ccccc2[nH]1 (stereo not given)	inconclusive [activator, single point]	
O=C(CSc1ccc(-c2nc3ccccc3[nH]2)cn1)N1CCN(C(=O)c2ccco2)CC1	inactive	
COc1ccc(C2CC(=O)N3CN(Cc4ccco4)CSC3=C2C#N)cc1 (stereo not given)	inactive	
CN(C(=O)C12CC3CC(CC(C3)C1)C2)C1(C)CCS(=O)(=O)C1 (stereo not given)	inconclusive [activator, partial curve]	
CC(=O)C(Sc1ccc2nnc(-c3ccncc3)n2n1)C(C)=O	inconclusive [activator, full curve]	
Cc1cc2nc3[nH]c4c(Cl)cc(Cl)cc4c3nc2cc1C		inactive: 2.27% [at 11.4 µM]
O=c1sc2ccccc2n1CCOc1ccccc1	inconclusive [activator, partial curve]	
O=C(O)c1ccc(CSCc2ccco2)cc1	inconclusive [activator, single point]	
O=C(Cn1cc2c(n1)CCCCC2)N1CCc2ccccc2C1	inconclusive [activator, single point]	
NCCC[C@@H](CC(=O)N[C@@H]1CCNC[C@H]1C(=O)N[C@H](CC(=O)N[C@@H](CCC(=O)O)CC(=O)O)Cc1ccccc1)NC(=O)C[C@H](Cc1ccccc1)NC(=O)[C@@H]1CNCC[C@H]1N	inactive	
COc1ccc(-n2c(Cc3cccn3C)nnc2SCC(=O)Nc2ccccc2OC)cc1	inconclusive [activator, single point]	
C[C@H]1[C@H](C)OC(=O)C[C@H](O)C[C@H](O)C[C@H](O)CC[C@H](O)[C@H](O)CC(=O)C[C@H](O)[C@H](C(=O)O)[C@H](O)C[C@H](O[C@@H]2O[C@@H](C)[C@H](O)[C@@H](N)[C@@H]2O)C=CC=CC=CC=CCCC=CC=C[C@@](C)(O)[C@H]1O	inconclusive [activator, single point]	
CCOc1ccc(N(CC(=O)Nc2ccc(OC)cc2)S(=O)(=O)c2c(C)noc2C)cc1	inconclusive [activator, single point]	
Cc1ccccc1NC(=O)CSc1nnc(-c2ccoc2C)n1CCc1ccccc1	inactive	
Cc1ccc(C)c(N2CCN(c3cc(C)nc4nnnn34)CC2)c1	inconclusive [activator, partial curve]	
CN(c1ccccc1C(=O)Nc1ccc2c(c1)OCO2)S(C)(=O)=O	inactive	
Cc1nnc2sc(-c3ccncc3)nn12	inactive	
CC1CCC2C(=O)OC(CN3C(=O)c4ccccc4C3=O)CN2C1c1ccc(Br)cc1 (stereo not given)		inactive: 22.1% [at 11.4 µM]
Cc1ccc(NC(=O)CSc2n[nH]c(-c3ccncc3)n2)cc1	inconclusive [activator, single point]	

SMILES	Potency	activation
CCCCCCC#CC1C=CC(OC(C)=O)C(COC(C)=O)O1 (stereo not given)		inactive: -0.872% [at 11.4 µM]
COc1ccc(OC)c(CCNC(=O)Cn2sc3nc(C)cc(C)c3c2=O)c1	inactive	
c1ccc(CCN2CN(CCCN3CCOCC3)c3nc4ccccc4n3C2)cc1	inconclusive [activator, single point]	
O=C(C[N+]12CN3CN(CN(C3)C1)C2)c1ccc(-c2ccccc2)cc1		inactive: -3.21% [at 11.4 µM]
CCc1c(C#N)c(N)nc(SCC(=O)OCc2ccccc2)c1C#N	inconclusive [activator, single point]	
COc1ccc(OC)c(NC(=O)C2CCCN(S(=O)(=O)c3c(C)noc3C)C2)c1 (stereo not given)	inactive	
COc1cccc(C(c2sc3nc(C)nn3c2O)N2CCN(C(=O)c3ccco3)CC2)c1 (stereo not given)	inconclusive [activator, single point]	
CSc1nc2ccc(NS(=O)(=O)c3ccc4c(c3)OCCO4)cc2s1	inconclusive [activator, single point]	
Cc1cc(/C=N/n2cnnc2)c(C)n1-c1ccc2ncccc2c1	active: 3.98 µM	
Clc1c(CSc2nc3ccccc3o2)nc2ccccn12	inconclusive [activator, partial curve]	
O=C(CSc1nc(O)c(C2CCCCC2)c(=O)[nH]1)NCC1CCCO1 (stereo not given)	inconclusive [activator, single point]	
O=C(COC(=O)c1ccc2c(c1)OCO2)NCc1ccc(Cl)cc1	inconclusive [activator, single point]	
CCCCOC(=O)c1cc2c(cn1)[nH]c1ccccc12	inconclusive [activator, single point]	
C/C(=N/S(=O)(=O)c1ccc(Cl)c(Cl)c1)OCC(C)(C)C		inactive: 4.14% [at 11.4 µM]
Cc1nc2nc(-c3cccs3)cn2nc1C	inactive	
CCC1(C)Cc2ccccc2/C(=C/C(=O)N2CCCCC2)N1 (stereo not given)	active: 15.8 µM	
CCOC(=O)c1c(C)oc2ccc(O)c(CN(C)C)c12	inconclusive [activator, partial curve]	
O=C(NC1CCCCCC1)C1CCCN1S(=O)(=O)c1cccc2cccnc12 (stereo not given)	inconclusive [activator, single point]	
CCOC(=O)c1[nH]c(C)c(C(=O)Nc2ccc(C)c(Cl)c2)c1C	inconclusive [activator, single point]	
Cc1cc(C)c(S(=O)(=O)N2CCN(c3nc4c(c(=O)n(C)c(=O)n4C)n3C)CC2)c(C)c1	inconclusive [activator, single point]	
CCOC(=O)c1oc2cc(O)ccc2c(=O)c1-c1ccccc1OC	inconclusive [activator, single point]	
CCN1C(C)=C(C(=O)OC)C(c2ccccc2)N2C(=O)[C@](O)(C(=O)OC)C(c3ccccc3)C(C(=O)c3ccccc3)=C12 (stereo not given in full)	active: 3.98 µM	
O=S(=O)(O)c1ccc2c(N=Nc3cccc4ccccc34)c(O)c(S(=O)(=O)O)cc2c1		inactive: 2.12% [at 11.4 µM]
Cc1ccccc1NC(=O)CSc1nc(Nc2ccccc2)nc(N2CCOCC2)n1	inconclusive [activator, single point]	

SMILES	Potency	activation
O=C1CCCN1CCCNc1ncnc2c1cnn2-c1ccc(Cl)cc1	inactive	
Cc1cc2nc(C)n3c4ccccc4nc3n2n1	inactive	
Fc1ccc(-c2cc(C(F)(F)F)nc(-n3cncn3)n2)cc1	inconclusive [activator, single point]	
CCn1cc(C2=NOC(C(=O)Nc3c(C)nn(Cc4ccc(F)cc4)c3C)C2)c(C)n1 (stereo not given)	inconclusive [activator, single point]	
CN(C)C[C@H]1CCC[C@@H](CN(C)C)C1=O		inactive: 20.4% [at 11.4 µM]
Cn1nc(C(=O)Nc2cccc(C(F)(F)F)c2)ccc1=O	inconclusive [activator, single point]	
O=C(NC1=NCCS1)c1csc2ccccc12	inactive	
CCOC(=O)N1CCN(c2nc(-c3ccc(Cl)cc3)cs2)CC1	inconclusive [activator, single point]	
CCN1CCCC1CNC(=O)Cn1ncc2c(=O)oc3ccc(C)cc3c21 (stereo not given)	inconclusive [activator, single point]	
Cc1ccc2c(c1)NC(=O)C(CC(=O)NCc1cccnc1)O2 (stereo not given)	inconclusive [activator, single point]	
C[N+](C)(C)[C@@H](C1=CCCC1=O)c1ccccc1		inactive: -1.79% [at 11.4 µM]
N#Cc1cc2c(nc1SCC(O)CS(=O)(=O)Cc1ccccc1)CCCC2 (stereo not given)	inactive	
CCC/C=C(\CCC)C(NC(=O)c1ccc(C(F)(F)F)cc1)c1ccccc1 (stereo not given)	active: 15.8 µM	
Cc1ccc(C)c(NS(=O)(=O)c2c(C)ccc3nsnc23)c1	inactive	
O=c1c(-c2cccs2)nc2cncnc2n1C1CC1	inconclusive [activator, single point]	
Cn1c(COc2ccc(Cl)cc2)nnc1SCc1ncc(-c2ccccc2)o1	inconclusive [activator, single point]	
CC(=O)N1[C@H](Cc2ccccc2)C=C[C@]1(C)C(=O)NCCN1CCOCC1	inactive	
O=c1c(CCc2ccccc2)nc2cnc(Oc3ccccc3)nc2n1C1CC1	inconclusive [activator, partial curve]	
COCC(=O)N(Cc1ccccc1)c1ccccn1	inactive	
CC(=O)Oc1ccc(C(c2ccc(OC(C)=O)cc2)c2ccccn2)cc1	active: 1.26 µM and active: 2.51 µM	
Cc1ccccc1NC(=O)Cn1c(C)nc2ccc(NC(=O)C3CC3)cc2c1=O	inactive	
CCCC[C@@H]1C[C@H]1C(NC(=O)c1ccccc1)c1ccccc1C(F)(F)F (stereo not given in full)	inconclusive [activator, full curve]	
